Results are given in words; binding and its absence hold for the method and conditions named. For part of these data: In cells and extracts the contact can be indirect. Some binding calls cover weakened binding; strength is not graded here.
Tests used:
[1] = target: Flag-tagged ELMO1 (Engulfment and Cell Motility Protein-1) (UniProt Q92556); experiment: co-IP; HEK293 cells co-transfected with Flag-ELMO1 and HA-NOD2 (WT or mutant); lysed in NP buffer; about 1 mg lysate with ANTI-FLAG M2 Affinity Gel overnight at 4°C; immunoblot
GST-NOD2-LRR = GST-NOD2-LRR (UniProt Q9HC29); experiment: pull-down; purified GST-NOD2-LRR immobilized on GST beads overnight at 4°C, incubated with His-ELMO-CT or His-ELMO-FL for 4h at 4°C; anti-His immunoblot; also with varying concentrations of GST-NOD2-LRR (Figure S1); both purified
[2] = target: GST-ELMO1 full length (FL) (UniProt Q92556); experiment: pull-down; GST, GST-ELMO1 FL and GST-ELMO1 CT immobilized on glutathione beads; soluble recombinant His-NOD2 CARD or His-NOD2 LRR incubated with the beads; bound NOD2 detected with anti-His antibody; both purified

Chains of the proteins cited; added tags and fusions are not shown. Lines headed by an entry give the natural chain unless they say otherwise; changes in a name come on top.
UniProt Q92556: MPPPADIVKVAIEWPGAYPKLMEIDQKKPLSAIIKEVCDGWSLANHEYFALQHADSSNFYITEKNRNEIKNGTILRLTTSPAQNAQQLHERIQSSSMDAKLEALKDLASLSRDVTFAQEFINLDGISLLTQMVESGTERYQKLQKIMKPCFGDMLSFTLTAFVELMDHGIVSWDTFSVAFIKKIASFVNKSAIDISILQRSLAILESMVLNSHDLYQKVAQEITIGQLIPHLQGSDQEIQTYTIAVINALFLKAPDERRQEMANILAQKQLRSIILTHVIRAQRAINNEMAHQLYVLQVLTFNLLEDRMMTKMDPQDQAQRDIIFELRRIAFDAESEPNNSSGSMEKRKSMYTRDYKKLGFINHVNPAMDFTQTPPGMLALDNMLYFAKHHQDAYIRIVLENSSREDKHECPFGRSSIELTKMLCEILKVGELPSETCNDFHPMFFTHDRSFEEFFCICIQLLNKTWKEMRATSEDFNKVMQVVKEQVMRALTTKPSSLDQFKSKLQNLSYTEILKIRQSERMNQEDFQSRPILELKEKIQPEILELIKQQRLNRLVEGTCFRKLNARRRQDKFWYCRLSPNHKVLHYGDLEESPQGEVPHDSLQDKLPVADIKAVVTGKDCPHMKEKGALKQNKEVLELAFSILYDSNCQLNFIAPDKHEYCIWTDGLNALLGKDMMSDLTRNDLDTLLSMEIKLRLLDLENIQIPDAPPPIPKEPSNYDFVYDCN
UniProt Q9HC29: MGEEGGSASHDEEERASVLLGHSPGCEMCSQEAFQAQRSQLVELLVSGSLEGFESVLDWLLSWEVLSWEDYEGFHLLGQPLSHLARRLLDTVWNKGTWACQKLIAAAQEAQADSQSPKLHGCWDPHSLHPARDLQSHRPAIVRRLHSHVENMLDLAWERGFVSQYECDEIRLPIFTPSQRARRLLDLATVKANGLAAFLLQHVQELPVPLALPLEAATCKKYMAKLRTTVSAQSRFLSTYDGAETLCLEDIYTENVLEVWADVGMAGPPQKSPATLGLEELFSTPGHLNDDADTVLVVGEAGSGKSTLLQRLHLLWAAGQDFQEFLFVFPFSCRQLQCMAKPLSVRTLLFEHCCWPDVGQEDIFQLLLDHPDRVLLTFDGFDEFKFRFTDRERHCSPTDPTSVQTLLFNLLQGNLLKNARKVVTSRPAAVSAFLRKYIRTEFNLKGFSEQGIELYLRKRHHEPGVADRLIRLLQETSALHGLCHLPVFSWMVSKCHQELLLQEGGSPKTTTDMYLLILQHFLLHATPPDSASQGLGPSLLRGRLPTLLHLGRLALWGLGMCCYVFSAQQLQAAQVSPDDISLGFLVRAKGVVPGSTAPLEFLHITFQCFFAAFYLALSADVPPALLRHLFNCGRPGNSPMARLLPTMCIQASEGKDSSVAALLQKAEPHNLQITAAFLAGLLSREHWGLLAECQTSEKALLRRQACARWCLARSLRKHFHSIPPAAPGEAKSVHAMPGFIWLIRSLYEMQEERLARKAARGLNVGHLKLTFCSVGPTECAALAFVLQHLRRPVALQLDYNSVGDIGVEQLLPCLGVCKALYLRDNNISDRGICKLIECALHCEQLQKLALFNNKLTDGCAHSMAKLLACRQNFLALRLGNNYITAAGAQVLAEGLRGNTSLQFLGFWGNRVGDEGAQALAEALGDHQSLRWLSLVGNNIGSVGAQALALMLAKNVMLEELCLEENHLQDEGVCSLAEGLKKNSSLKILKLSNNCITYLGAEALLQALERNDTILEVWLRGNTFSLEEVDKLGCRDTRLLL

| Substance | binding [1] | binding [2] | other results |
| --- | --- | --- | --- |
| HA-tagged NOD2 (Nucleotide-binding oligomerization domain-containing protein 2), wild type (from UniProt Q9HC29 1-1040) | binds |  |  |
| His-ELMO1 FL (from UniProt Q92556 1-727) |  |  | binding (GST-NOD2-LRR): binds |
| His-NOD2 LRR (from UniProt Q9HC29 744-1040) (domain or fragment) |  | binds |  |
| His-NOD2 CARD (from UniProt Q9HC29 28-265) (domain or fragment) |  | no binding |  |
| HA-NOD2 G908R (from UniProt Q9HC29 1-1040) | binds |  |  |
| HA-NOD2 R702W (from UniProt Q9HC29 1-1040) | binds |  |  |
